Laboratory results: PubChem BioAssay (Tox21)
Several values for one entry are separate records, joined by “and”; a condition that tells them apart may be missing. Equal values may be shown once. Inconclusive means that the source gave no clear call. Such entries were picked first, then a sample of the others. Entries that show only a call come without a potency. A potency beside an inconclusive call is a rough fit, not a confirmed value. Activity calls are given as the source filed them. The call rests on the fitted dose curve; in most records, active means well fitted curve in the direction sought with a large enough effect in the repeat runs; inconclusive means weak or mixed curves; inactive means no such curve, though single readings can be large; an effect the other way counts as inactive or inconclusive.
Potency means the concentration at half of the fitted maximal effect; tags describe the fitted curve by direction and shape.

Assay: qHTS assay to identify small molecule agonists of the sonic hedgehog signaling (Shh) pathway - cell viability counter screen (AID 1259366); further: nearly all actives have a fitted effect of over 50% in size
Settings: NIH/3T3 Gli1-Luc viability, CellTiter-Fluor, 24 h; series mostly up to 92.4 µM
Procedure, shortened: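 Same-well cytotoxicity read. Gli1-Luc reporter 3T3 cells; compounds 24hr, 37C/5% CO2; CellTiter-Fluor fluorescence.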
With `[Cl][Eu]([Cl])[Cl]` the Potency was inconclusive: 9.69 µM [rising, full curve].
In the case of `CCN(O)CC`, the Potency is reported as active: 30 µM.
In the case of `CC1CCN(CCCC(=O)c2ccc(F)cc2)CC1`, the Potency is reported as “inactive”.
For `NO`, the Potency was “inactive”.
With `C=C(C)C(=O)OCCOP(=O)(O)O` the Potency was “inactive”.
In the case of `CN1CCN(C(c2ccccc2)c2ccccc2)CC1`, the Potency is reported as inconclusive: 11.9 µM [cytotoxic, partial curve].
For `CCN1CC(CCN2CCOCC2)C(c2ccccc2)(c2ccccc2)C1=O` (centres undefined), the Potency was inconclusive: 26.6 µM [cytotoxic, partial curve].
In the case of `C=CC(=O)OCC[N+](C)(C)C`, the Potency is reported as “inactive”.
In the case of `CC1=C(CC(=O)O)c2cc(F)ccc2/C1=C\c1ccc(S(C)(=O)=O)cc1`, the Potency is reported as inconclusive: 0.298 µM [rising, single point].
In the case of `CC(COc1ccccc1)NC(C)C(O)c1ccc(O)cc1` (centres undefined), the Potency is reported as “inactive”.
In the case of `CCCOc1ccc(S(=O)(=O)N2CCN(CC)CC2)cc1-c1nc2c(CC)n(Cc3ccccn3)nc2c(=O)[nH]1`, the Potency is reported as inconclusive: 54.5 µM [cytotoxic, partial curve, poor fit].
For `C[C@]12C(=O)OC(=O)[C@H]1[C@H]1C=C[C@@H]2C1`, the Potency was inconclusive: 77.6 µM [cytotoxic, single point].
In the case of `Nc1c(I)cc(I)c(C(=O)N(CCC(=O)O)c2ccccc2)c1I`, the Potency is reported as “inactive”.
For `CC(C)(C)C(=O)CC(=O)C(C)(C)C`, the Potency was “inactive”.
With `CC(=O)OCc1ccco1` the Potency was inconclusive: 68.2 µM [cytotoxic, single point].
In the case of `CCCCNC(=S)NCCCC`, the Potency is reported as inconclusive: 68.6 µM [rising, single point].

Assay: qHTS assay to identify small molecule antagonists of the sonic hedgehog signaling (Shh) pathway - cell viability counter screen (AID 1259367); further: nearly all actives have a fitted effect of over 55% in size
Settings: NIH/3T3 Gli1-Luc viability, CellTiter-Fluor, 24 h; series mostly up to 92.4 µM
Procedure, shortened: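 Conditioned medium drove Shh signaling in 3T3 Gli1-Luc cells exposed to compounds at 37C and 5% CO2. Viability was determined from CellTiter-Fluor fluorescence, with reagent incubated 1 hr after 23 hr of treatment.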
For `O=C(O)c1ccccc1Nc1cc(Cl)ccc1C(=O)O`, the Potency was inconclusive: 16.4 µM [cytotoxic, single point].
For `C=CC(C)CCC=C(C)C` (centres undefined), the Potency was “inactive”.
With `[Cl][Eu]([Cl])[Cl]` the Potency was inconclusive: 9.69 µM [rising, full curve].
In the case of `CCOC=C(C(=O)OCC)C(=O)OCC`, the Potency is reported as “inactive”.
With `CC(Oc1c(Cl)cccc1Cl)C1=NCCN1` (centres undefined) the Potency was “inactive”.
In the case of `CCN(O)CC`, the Potency is reported as active: 21.2 µM.
In the case of `CC(C)OC(=O)CCCCC(=O)OC(C)C`, the Potency is reported as inconclusive: 15.4 µM [rising, full curve].
With `CC1COc2c(N3CCN(C)CC3)c(F)cc3c(=O)c(C(=O)O)cn1c23` (centres undefined) the Potency was “inactive”.
With `CCCCCCCCOC(=O)CCCCCCCCC(=O)OCCCCCCCC` the Potency was “inactive”.
For `Cc1ccnc2ccccc12`, the Potency was inconclusive: 76.7 µM [cytotoxic, partial curve, poor fit].
For `C=C(C)C(=O)OCCOP(=O)(O)O`, the Potency was “inactive”.
For `CN1CCN(C(c2ccccc2)c2ccccc2)CC1`, the Potency was inconclusive: 8.41 µM [cytotoxic, full curve].
For `COC(=O)c1ccc(C)cc1C1=NC(C)(C(C)C)C(=O)N1` (centres undefined), the Potency was “inactive”.
For `CCN1CC(CCN2CCOCC2)C(c2ccccc2)(c2ccccc2)C1=O` (centres undefined), the Potency was inconclusive: 26.6 µM [cytotoxic, partial curve].
In the case of `CC(=O)OC(C)(C)C`, the Potency is reported as “inactive”.
For `O=C(c1ccccc1)c1ccc(O)c(O)c1O`, the Potency was inconclusive: 54.9 µM [cytotoxic, partial curve] and inconclusive: 68.6 µM [cytotoxic, single point].
With `O=C(O)c1cn(-c2ccc(F)cc2)c2cc(N3CCNCC3)c(F)cc2c1=O` the Potency was “inactive”.
In the case of `CC(COc1ccccc1)NC(C)C(O)c1ccc(O)cc1` (centres undefined), the Potency is reported as “inactive”.
For `CCCOc1ccc(S(=O)(=O)N2CCN(CC)CC2)cc1-c1nc2c(CC)n(Cc3ccccn3)nc2c(=O)[nH]1`, the Potency was inconclusive: 34.4 µM [cytotoxic, partial curve].
For `C1=COCCC1`, the Potency was “inactive”.
With `Cc1cc(O)c2c(c1)C(=O)c1cccc(O)c1C2=O` the Potency was inconclusive: 26.7 µM [cytotoxic, partial curve, poor fit].
For `Cc1ccc(C=O)cc1`, the Potency was “inactive”.
With `CC(=O)C=O` the Potency was “inactive”.
In the case of `O=C(c1ccc(Cl)cc1)c1ccc(Cl)cc1`, the Potency is reported as “inactive”.
For `COC(=O)[C@@H]1[C@H]2C[C@H]3c4[nH]c5ccccc5c4CCN3C[C@@H]2CC[C@@H]1O`, the Potency was “inactive”.
With `C[C@]12C(=O)OC(=O)[C@H]1[C@H]1C=C[C@@H]2C1` the Potency was inconclusive: 69.1 µM [cytotoxic, single point].
With `CCOC(=O)CCC(C)=O` the Potency was “inactive”.
For `OC(C#CCN1CCCC1)(c1ccccc1)c1ccccc1`, the Potency was inconclusive: 26.6 µM [cytotoxic, partial curve, poor fit].
